Data on 87 compounds can be found in publication PMC4336329 (PLoS ONE, 2015).

Structures are written as SMILES. The whole screen tested about 310,000 compounds, of which about 2,200 (0.71%) showed an effect of 50% or more. Effects have a minus sign here. The list shows a part of the results. Where a SMILES comes first, the peptide text is derived from it. [ ]: non-standard residue; d: D form. The star is where a group is joined. Tic = O=C(O)[C@@H]1Cc2ccccc2CN1; Boc = CC(C)(C)OC(=O)*

Chain of human ether-à-go-go-related gene (hERG) potassium channel (Q12809 whole entry, looked up): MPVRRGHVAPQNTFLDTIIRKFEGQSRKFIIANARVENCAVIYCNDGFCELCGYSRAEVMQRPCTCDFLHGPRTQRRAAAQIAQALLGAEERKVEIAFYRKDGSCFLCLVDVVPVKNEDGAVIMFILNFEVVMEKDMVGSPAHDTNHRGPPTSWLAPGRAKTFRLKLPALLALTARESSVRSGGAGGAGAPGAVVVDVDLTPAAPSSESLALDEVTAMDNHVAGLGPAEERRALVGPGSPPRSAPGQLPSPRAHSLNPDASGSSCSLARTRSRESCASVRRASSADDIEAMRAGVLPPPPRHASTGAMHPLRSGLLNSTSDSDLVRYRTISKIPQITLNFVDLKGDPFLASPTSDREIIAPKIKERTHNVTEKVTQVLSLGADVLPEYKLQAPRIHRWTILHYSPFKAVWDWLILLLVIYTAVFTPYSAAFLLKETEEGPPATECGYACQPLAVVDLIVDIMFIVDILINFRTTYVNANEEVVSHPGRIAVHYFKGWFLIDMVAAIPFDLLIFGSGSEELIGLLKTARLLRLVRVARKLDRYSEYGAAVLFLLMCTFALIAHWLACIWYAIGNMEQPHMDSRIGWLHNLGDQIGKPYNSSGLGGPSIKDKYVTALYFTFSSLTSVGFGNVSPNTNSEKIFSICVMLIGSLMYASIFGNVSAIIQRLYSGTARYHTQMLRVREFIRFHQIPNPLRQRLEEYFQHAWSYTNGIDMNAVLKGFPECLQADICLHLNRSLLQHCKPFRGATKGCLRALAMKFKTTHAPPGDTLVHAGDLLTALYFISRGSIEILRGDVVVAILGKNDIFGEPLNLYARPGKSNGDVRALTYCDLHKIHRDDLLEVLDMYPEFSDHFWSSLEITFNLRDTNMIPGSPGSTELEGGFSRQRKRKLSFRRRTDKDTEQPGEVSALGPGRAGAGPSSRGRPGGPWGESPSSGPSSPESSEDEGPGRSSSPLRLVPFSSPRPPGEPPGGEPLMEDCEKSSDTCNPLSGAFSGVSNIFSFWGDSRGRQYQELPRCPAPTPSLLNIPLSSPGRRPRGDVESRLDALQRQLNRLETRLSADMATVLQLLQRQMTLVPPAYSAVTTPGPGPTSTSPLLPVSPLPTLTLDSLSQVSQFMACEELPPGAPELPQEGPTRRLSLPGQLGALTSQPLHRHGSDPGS

The experiment concerns the target human ether-à-go-go-related gene (hERG) potassium channel (human, UniProt Q12809). Nature of the experiment: primary screen, population patch clamp on CHO cells stably expressing hERG.
With `CN(C)/C=N/N(C)c1ncccc1[N+](=O)[O-]`, the “hERG current change (%, negative = inhibition) at 1uM” value stood at 11.6%.

As for `CCNC(=S)NS(=O)(=O)c1ccc(C)cc1`, the “hERG current change (%, negative = inhibition) at 1uM” value came to 0.48%. The figure for `CN(CC(=O)N1CCN(Cc2ccccc2)CC1)C(=O)Cc1cccc2ccccc12` is 1.13%; for `CN1C(=O)N(c2ccc(Cl)cc2)C(C)(O)CC1(C)C` (stereo not drawn) it is 2.58%. On to `CCc1ccc2[nH]c(=O)c(C(c3nnnn3Cc3ccc(OC)cc3)N3CCOCC3)cc2c1` (stereo not drawn), for which the “hERG current change (%, negative = inhibition) at 1uM” value is given as -13%. Under `O=C(CN1C(=O)C2CC=CCC2C1=O)Nc1ccc(OC(F)(F)F)cc1` (stereo not drawn) stands 2.45%. Under `CC(=O)Nc1ccc(S(=O)(=O)Nc2nc3ccccc3nc2Nc2ccc(O)c(C(=O)O)c2)cc1` stands 12.6%; under `O=C1CC(c2ccco2)CC2=C1C1c3ccccc3C(=O)N1c1ccccc1N2` (stereo not drawn), 2.82%. Regarding `Fc1ccc(-c2csc(NC(=S)Nc3ccccc3)n2)cc1`, the “hERG current change (%, negative = inhibition) at 1uM” value is 13%.

Take `CCOc1ccc(C(=O)N/N=C(/C)C2C(=O)c3ccccc3C2=O)cc1`: the “hERG current change (%, negative = inhibition) at 1uM” value is reported as 13%.

Consider `c1ccc(-n2nnnc2NCCCN2CCOCC2)cc1`, for which the “hERG current change (%, negative = inhibition) at 1uM” value amounted to 6.03%.

With `O=C(NCCO)c1scc2c1OCCO2`, the “hERG current change (%, negative = inhibition) at 1uM” value stood at 15.9%. Under `CC(C)OP(=O)(OC(C)C)C(O)c1cccnc1` (stereo not drawn) stands 15.1%; under `COc1cccc(CN2CCN(C(=O)c3ccc(-c4ccccc4)cc3)CC2)c1OC.O=C(O)C(=O)O`, 7.67%; under `CC(OC(=O)Nc1cccc(Cl)c1)C(=O)O` (stereo not drawn), 15.5%. With `O=C(/C=C/Nc1ccc(S(=O)(=O)Nc2ncccn2)cc1)c1cccs1`, the “hERG current change (%, negative = inhibition) at 1uM” value was determined as 11%. Under `Fc1ccc(C(CCCn2nnc(-c3cccnc3)n2)c2ccc(F)cc2)cc1` stands 9.02%. The figure for `COCCNC(=O)c1onc(CSc2cc(C)cc(C)c2)c1C(=O)NCCOC` is 6.78%; for `COc1cccc(CNC(=O)CCNS(=O)(=O)c2ccc3c(c2)oc(=O)n3C)c1` it is 14.1%. The figure for `Cc1cc(C)n(CCNS(=O)(=O)c2ccc(C)c(C)c2)n1` is 13.2%; for `C=CCS(=O)(=O)N1CCCC(C(=O)c2cccc(Cl)c2)C1` (stereo not drawn) it is 14.2%; for `COc1cccc(CN2CCN(Cc3cc(OC)c(OC)cc3OC)CC2)c1.O=C(O)C(=O)O` it is -11.4%. On to `CCCc1cc(=O)oc2cc(OCC(=O)NCCCN3CCCC3=O)ccc12`, for which the “hERG current change (%, negative = inhibition) at 1uM” value was 17%. Regarding `CCN(CC)C(=O)Oc1ccc2c(=O)c(-c3ccccc3)coc2c1`, the “hERG current change (%, negative = inhibition) at 1uM” value is listed as -3.74%. Under `NC(Cc1ccccc1)c1nc(-c2ccccc2)no1` (stereo not drawn) stands 3.39%; under `O=C(CSc1nccn1Cc1ccccc1)Nc1ccccc1`, 14.5%.

Regarding `Cc1ccc(S(=O)(=O)N(C)C)cc1NC(=O)COC(=O)C1CCN(S(=O)(=O)c2cccs2)CC1`, the “hERG current change (%, negative = inhibition) at 1uM” value is -58.4%. Under `CCN(CC)CCN1C(=O)C(=O)/C(=C(/O)c2ccc3c(c2)CC(C)O3)C1c1ccc(OC)cc1` (stereo not drawn) stands 9.43%; under `Cc1ccccc1-c1nc(CN2CCC(C(=O)O)CC2)c(C)o1`, -1.68%. The figure for `CCn1c(SCc2cccc(F)c2)nc2c(c1=O)SCC2` is 0.51%; for `CC(C)OC(=O)CCC(=O)Nc1nc2ccccc2s1` it is 9.08%; for `O=C(COC(=O)C1COc2ccccc2O1)Nc1ccc2c(c1)CCC2` (stereo not drawn) it is 20.6%. Under `Cc1cc(C(C#N)c2ccccc2F)n2ncnc2n1` (stereo not drawn) stands 13.7%. Turning to `COC(=O)[C@@]1(Cc2ccc(F)cc2)[C@H]2c3cc(C(=O)N4CCCC4)n(CCc4ccccn4)c3C[C@H]2CN1C(=O)c1ccccc1`, the “hERG current change (%, negative = inhibition) at 1uM” value is given as -3.4%. For `COc1ccc(C=Nc2cccc3c(=O)[nH][nH]c(=O)c23)c2ccccc12`, the “hERG current change (%, negative = inhibition) at 1uM” value is recorded as 4.8%. Under `COc1ccc(-c2[nH]ncc2/C=C(\C#N)C(=O)NC2CC2)cc1` stands 8.58%; under `CCN1CCN(C(=O)Cn2nc(C)n3c(cc4c(OC)cccc43)c2=O)CC1`, 9.75%.

In the case of `COC(=O)C1=C(C)N(C)C(=O)NC1c1ccc(C)cc1` (stereo not drawn), the “hERG current change (%, negative = inhibition) at 1uM” value was 4.16%. The figure for `COc1ccc(NC(=O)C(NS(=O)(=O)c2cccs2)C(C)C)cc1Cl` (stereo not drawn) is -5.41%; for `COc1ccc(CNC(=O)C(=O)NCC2OCCN2S(=O)(=O)c2ccc(F)cc2)cc1` (stereo not drawn) it is 10.7%. Under `Cc1cccc(N2C(=O)CC(N3CCN(c4ccccn4)CC3)C2=O)c1` (stereo not drawn) stands 15.8%; under `O=C(/C=C/c1cccc(Cl)c1)c1ccc([N+](=O)[O-])o1`, -5.37%; under `C/C(=N\Nc1nccnc1Cl)c1ccc(Br)cc1`, 4.33%. The figure for `Cc1cccc2cc3c(N)c(C(=O)N4CCCc5ccccc54)sc3nc12` is 6.2%; for `Cc1ccc(OCc2nnc(NC(=O)OCC(C)C)s2)cc1` it is 17.9%.

`COc1cc2[nH]c(=O)n(CCC(=O)N3CCc4ccccc4C3)c(=O)c2cc1OC`: the “hERG current change (%, negative = inhibition) at 1uM” value came out at 8.72%. The figure for `Nn1c(-c2cccs2)nc2sc3c(c2c1=O)CCCC3` is 3.04%. On to `CC1(O)c2ccccc2C(=O)N1Cc1ccccc1` (stereo not drawn), for which the “hERG current change (%, negative = inhibition) at 1uM” value was -7.37%. The figure for `O=C(Nc1ccccc1Cl)N(Cc1nc2ccccc2c(=O)[nH]1)Cc1cccs1` is 5.09%; for `CC(C)(C)OC(=O)N1Cc2ccccc2C[C@H]1C(=O)N1CCC[C@H]1C(=O)O` (Boc-[Tic]-Pro-OH) it is 12.1%. For the compound `O=C(NCc1nnc(SCC(=O)N2CCCCC2)o1)c1c(F)cccc1Cl`, the “hERG current change (%, negative = inhibition) at 1uM” value is on record as 14.4%.

With `CCOC(=O)C1(CCOc2ccccc2)CCN(CC=C(C)C)CC1`, the “hERG current change (%, negative = inhibition) at 1uM” value was -17.8%. Under `CC1=C(C(=O)OCCCBr)C(c2ccc3c(c2)OCO3)NC(=O)N1` (stereo not drawn) stands 9.35%; under `Clc1ccc(Oc2nc(N3CCOCC3)nc(N3CCOCC3)n2)c(C2CCCCC2)c1`, 10.6%.

For the compound `Cc1nn(-c2ccccc2)c(C)c1C(=O)NNC(=O)C(F)(F)F`, the “hERG current change (%, negative = inhibition) at 1uM” value turned out to be 10.4%. The figure for `OCCCNC(=S)NC1CCCC1` is 12.9%. Under `COc1ccccc1NC(=O)Cc1c(F)cccc1Cl` stands 15.9%.

With `COc1ccc(C(=O)NCC(=O)N/N=C/c2cn(C)c3ccccc23)cc1OC`, the “hERG current change (%, negative = inhibition) at 1uM” value is listed as 10.1%. The figure for `COc1ccc(N2CCN(S(=O)(=O)c3c(C)nc4sccn4c3=O)CC2)cc1` is 9.52%. Regarding `CCOC(=O)c1cc2sc(C)cc2n1CC(=O)Nc1cccc(C)c1C`, the “hERG current change (%, negative = inhibition) at 1uM” value is given as -12.8%. Under `O=C(Cc1ccc(Cl)c(Cl)c1)Nc1ccc2[nH]c(=O)[nH]c2c1` stands 4.75%; under `Cc1ccc(-c2csc(N3CCN(c4cc5c(cc4Cl)nc(-c4ccncc4)n5CCOCCO)CC3)n2)cc1`, 6.94%; under `COc1ccc(C2OC(=O)CC2C(=O)NC2CCCCCC2)cc1OC` (stereo not drawn), -2.2%. The figure for `Cc1ccc(C)n1-c1ccc(C(=O)NN=C2CCCC2)cc1` is 5.38%; for `Cc1ccc(C(=O)NNC(=O)CSc2nnc(-c3ccccc3)n2Cc2ccccc2)cc1` it is 3.13%. Under `Cc1ccc(-c2cc3nc(C)cc(NCc4ccco4)n3n2)cc1` stands -7.85%; under `Cc1cc(C)n(-c2cccc(CN(C)Cc3nc(-c4cnccn4)no3)c2)n1`, -5.38%; under `CC(C)Sc1sc(C(=O)O)c(-c2ccc(Cl)cc2)c1C#N`, 10.8%. `O=C(c1ccccc1[N+](=O)[O-])N1CC2C3C=CC(C3)C2C1` (stereo not drawn): the “hERG current change (%, negative = inhibition) at 1uM” value amounted to 19.8%.

With `Cc1ccc(C)c(-c2csc(-c3cccnc3)n2)c1`, the “hERG current change (%, negative = inhibition) at 1uM” value is 15.1%. As to `O=C(O)CCCCCN1C(=O)C2CCCCC2C1=O` (stereo not drawn), the “hERG current change (%, negative = inhibition) at 1uM” value is given as 8.83%.

For the compound `Cc1cc(OC(=O)c2ccccc2Cl)c([N+](=O)[O-])c(=O)[nH]1`, the “hERG current change (%, negative = inhibition) at 1uM” value was determined as 9.95%. Under `COc1ccccc1C(=O)Nc1nnc(-c2ccc3c(c2)CCCC3)o1` stands 12.7%. The figure for `COc1ccc(NC(=O)C/C(C)=N/NC(=O)c2cnccn2)c(OC)c1` is 17%. The figure for `Cc1cc(S(=O)(=O)N2CCCOC2CNC(=O)C(=O)NCCCN2CCOCC2)ccc1F` (stereo not drawn) is 15.5%; for `O=C(Oc1ccc(/C=N/n2cnnc2)cc1)c1cccc([N+](=O)[O-])c1` it is 12.3%; for `O=C(Cn1cnc2c(nnn2-c2cccc(Cl)c2)c1=O)NCc1ccccc1` it is 5.51%.

As for `O=C(CSc1ncn[nH]1)Nc1nsc(-c2ccccc2)n1`, the “hERG current change (%, negative = inhibition) at 1uM” value is recorded as 0.0158%. For the compound `O=C(c1cccc(OC2CCN(Cc3ccc(F)cc3Cl)CC2)c1)N1CCCC1`, the “hERG current change (%, negative = inhibition) at 1uM” value was determined as 11%. For the compound `CCOC(=O)c1ccc(NC(=O)NCc2c(C)nn(CC)c2C)cc1`, the “hERG current change (%, negative = inhibition) at 1uM” value was 15.5%. Under `[O-]/[N+](=C\c1ccc(OC(F)F)cc1)c1ccccc1` stands 2.04%. The figure for `Cc1[nH]n(-c2ccccc2)c(=O)c1-c1ccc(Cl)cc1` is 11.7%; for `CCN(CC)C(=O)c1ccc(NC(=O)COc2ccc(-c3nn(C)c(=O)c4ccccc34)cc2)cc1` it is 3.48%. Under `Cc1ccc(NC(=O)CCC(=O)N/N=C/c2ccco2)c(C)c1` stands 11%.

For `CN(C)S(=O)(=O)c1ccc(NC(=O)c2cc(-c3cccs3)nc3ccccc23)cc1`, the “hERG current change (%, negative = inhibition) at 1uM” value is 14.6%.

As for `O=C(Nc1cccc(S(=O)(=O)N2CCCCCC2)c1)C1CCN(C(=O)c2ccc(Cl)cc2)CC1`, the “hERG current change (%, negative = inhibition) at 1uM” value is given as -10.9%. Regarding `N#Cc1cnn2c(-c3cccc(C(F)(F)F)c3)ccnc12`, the “hERG current change (%, negative = inhibition) at 1uM” value turned out to be 1.86%.
